# The campaign covered roughly 48,000 compounds. About 550 (1.1%) were called active. Not shown: some 4% with an inconclusive outcome. No stated cut-off is given here; in the data, active means potency below about 15 µM; inconclusive means mostly about 16 µM to 33 µM; inactive means weaker than that. Some of the results follow.
# Biological target: Lysosomal acid glucosylceramidase (Homo sapiens) (UniProt P04062)
# Experiment: Glucocerebrosidase;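 further: the screen sought inhibitors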
# Conditions: purified enzyme, resorufin glucoside fluorescence (screen aimed at inhibitors), 20 min
# Method in brief: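 Compounds titrated against 0.2 nM normal enzyme, 30 uM resorufin beta-D-glucopyranoside substrate, citrate/phosphate buffer with taurocholate and tween-20, pH 5.9. Reaction ran 20 min at room temperature; fluorescence (Ex 548/Em 600) gave AC50.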
# Potency means the concentration at half of the fitted maximal effect.
# Chain of UniProt P04062 (P04062 whole entry, looked up): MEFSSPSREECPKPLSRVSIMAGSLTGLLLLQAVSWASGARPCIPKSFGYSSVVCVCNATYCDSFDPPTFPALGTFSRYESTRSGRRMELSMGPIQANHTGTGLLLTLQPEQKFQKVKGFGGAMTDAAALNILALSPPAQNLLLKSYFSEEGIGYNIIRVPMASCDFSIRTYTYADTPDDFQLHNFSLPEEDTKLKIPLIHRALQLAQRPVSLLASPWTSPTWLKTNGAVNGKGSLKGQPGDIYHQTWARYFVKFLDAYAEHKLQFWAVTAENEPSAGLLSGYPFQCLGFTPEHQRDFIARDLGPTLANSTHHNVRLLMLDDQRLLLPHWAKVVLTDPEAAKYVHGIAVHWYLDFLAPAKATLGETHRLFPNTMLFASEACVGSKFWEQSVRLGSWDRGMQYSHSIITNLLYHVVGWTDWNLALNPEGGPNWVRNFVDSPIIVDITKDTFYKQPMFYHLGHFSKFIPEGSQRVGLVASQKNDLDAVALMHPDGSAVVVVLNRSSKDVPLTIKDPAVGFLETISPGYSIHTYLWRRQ
row,SMILES,Potency
1,O=C(NCc1cccnc1)c1ccc(CS(=O)(=O)c2ccc(Cl)cc2)o1,inactive: > 76.9 µM
2,COc1ccc(N2CCN(C(=O)CSc3nc4c(c(=O)n(C)c(=O)n4C)n3C(C)C)CC2)cc1,inactive: > 76.9 µM
3,CCCCCn1c(CN2CCN(c3cc(Cl)ccc3C)CC2)nc2c1c(=O)[nH]c(=O)n2C,inactive: > 76.9 µM
4,O=C(CCNS(=O)(=O)c1cccc2nonc12)NCCc1ccc(Cl)cc1,inactive: > 76.9 µM
5,CCS(=O)(=O)N1CCCC(C(=O)NCCc2ccc(OC)c(OC)c2)C1 (stereo unspecified),inactive: > 76.9 µM
6,Cc1cc(S(=O)(=O)N(Cc2ccc(F)cc2)CC2CCCO2)ccc1-n1cnnn1 (stereo unspecified),inactive: > 76.9 µM
7,CCC(C)NC(=O)CSc1nc2ccccc2c(=O)n1CCCC(=O)NCC1CCCO1 (stereo unspecified),inactive: > 76.9 µM
8,COc1ccc(NC(=O)C2CCCN(C(=O)NC3CCCCC3)C2)cc1OC (stereo unspecified),inactive: > 76.9 µM
9,CC(=O)Nc1cccc2c1C(=O)NC2=O,inactive: > 76.9 µM
10,CCNc1nc(N)nc(Oc2ccc(OCC)nn2)n1,inactive: > 76.9 µM
11,O=C(NCC(c1cccnc1)N1CCN(c2ccccc2)CC1)c1ccc2c(c1)OCO2 (stereo unspecified),inactive: > 76.9 µM
12,c1c2c(cc3sc(N4CCCCC4)nc13)OCCO2,inactive: > 76.9 µM
13,CCn1ncc(Br)c1C(=O)Nc1cc(C(=O)OC)ccc1C(=O)OC,inactive: > 76.9 µM
14,CC(C)N(C#N)c1nc(N2CCOCC2)nc(N2CCOCC2)n1,inactive: > 76.9 µM
15,CCOc1ccccc1N1CCN(CC(=O)Nc2nnc(CC)s2)CC1,inactive: > 76.9 µM
16,CCOc1cc2[nH]c(=O)n(CC3CCC(C(=O)NC(C)CC)CC3)c(=O)c2cc1OCC (stereo unspecified),inactive: > 76.9 µM
17,O=C(Oc1ccc(Br)cc1)C1CC(=O)N(c2ccc(F)cc2)C1 (stereo unspecified),inactive: > 76.9 µM
18,O=C(COc1ccccc1)N1CCN=C1c1ccccc1,inactive: > 76.9 µM
19,C=CCNC(=O)CC(C)C(CCCCC)C(=O)O (stereo unspecified),inactive: > 76.9 µM
20,O=C(CCc1ccccc1)Nc1nc2n(n1)C(c1ccccc1)CC(=O)N2 (stereo unspecified),inactive: > 76.9 µM
21,C=CCOc1cccc(C2/C(=C(\O)c3ccc(F)cc3)C(=O)C(=O)N2CCN(C)C)c1 (stereo unspecified),inactive: > 76.9 µM
22,Cc1ccc(O)c(Sc2cc(C)ccc2O)c1,inactive: > 76.9 µM
23,COc1ccc(C2NC3=C(CCC3)C3(C#N)C4(N=C(N)C23C#N)OCCO4)cc1 (stereo unspecified),inactive: > 76.9 µM

row,SMILES,Potency
1,Cc1n[nH]c(C)c1S(=O)(=O)N1CCC(C(=O)O)CC1,inactive: > 76.9 µM
2,CCN(CC)S(=O)(=O)c1ccc(S(=O)(=O)Nc2cc3c(cc2C(C)=O)OCO3)cc1,active: 14.9 µM
3,COc1ccccc1N1CCN(C(=O)C2c3ccccc3Oc3ccccc32)CC1,inactive: > 76.9 µM
4,Cc1ccc(-c2sc(C)nc2CC(=O)O)cc1,inactive: > 76.9 µM
5,COc1ccc(/C(O)=C2\C(=O)C(=O)N(CC3CCCO3)C2c2cc(OC)ccc2OC)cc1 (stereo unspecified),inactive: > 76.9 µM
6,CCCCN1CCc2c([nH]c3c(C)cccc23)C1=O,active: 9.79 µM
7,Cc1c(NS(=O)(=O)c2ccc(Br)s2)c(=O)n(-c2ccccc2)n1C,inactive: > 76.9 µM
8,COc1cccc(CNC(=O)Nc2cccs2)c1,inactive: > 76.9 µM
9,CNCCCc1[nH]nc(N)c1C#N,inactive: > 76.9 µM
10,CCCCn1c(SCC(=O)Nc2nnc(C)s2)nc2c1c(=O)n(C)c(=O)n2C,inactive: > 76.9 µM
11,CCOC(=O)C1=C(C)OC(N)=C(C#N)C1c1ccsc1 (stereo unspecified),inactive: > 76.9 µM
12,O=C(Cn1nnc(-c2ccccc2NC(=O)c2ccco2)n1)Nc1ccccc1,inactive: > 76.9 µM
13,CN(Cc1ccccc1)C(=O)CCNS(=O)(=O)c1ccc2c(c1)oc(=O)n2C,inactive: > 76.9 µM
14,Cc1cc(C)nc(-n2nc(C)cc2NC(=O)CN2CCC(C)CC2)n1,inactive: > 76.9 µM
15,COc1cc(C)c(S(=O)(=O)NC2CC(C)(C)NC(C)(C)C2)cc1C,inactive: > 76.9 µM
16,O=C1CCCN1CN(C(=O)c1ccc2c(c1)OCO2)c1cccc(Cl)c1,inactive: > 76.9 µM
17,CCOC(=O)c1[nH]c(CSc2nnc(-c3ccncc3)n2CCOC)c(C(=O)OCC)c1C,inactive: > 76.9 µM
18,CCCCCOC(=O)Cn1c(N2CCOCC2)nc2c1c(=O)[nH]c(=O)n2C,inactive: > 76.9 µM
19,O=C(NCC(=O)N(c1ccc2c(c1)OCO2)C(C(=O)NC1CCCC1)c1cccs1)c1ccco1 (stereo unspecified),inactive: > 76.9 µM
20,CCn1cc(Br)c(C(=O)NCc2ccco2)n1,inactive: > 76.9 µM
21,COc1ccc(-c2cc(C(F)(F)F)nc(NCc3ccco3)n2)cc1OC,inactive: > 76.9 µM
22,CCc1ccc2c(CN3CCc4ccccc43)cc(=O)oc2c1,inactive: > 76.9 µM
23,CCC(C)COC(=O)c1ccc(C(=O)O)cc1 (stereo unspecified),inactive: > 76.9 µM

row,SMILES,Potency
1,O=C(CCS(=O)(=O)c1cccc2nonc12)N1CCOCC1,inactive: > 76.9 µM
2,COc1nc(NCCN2CCOCC2)nc(Nc2ccccc2)n1,inactive: > 76.9 µM
3,O=C(O)CCSCC(=O)Nc1c(C(=O)C2CC2)oc2ccccc12,inactive: > 76.9 µM
4,CCCc1cc(=O)[nH]c(Nc2cc(OC)ccc2OC)n1,inactive: > 76.9 µM
5,COc1ccc(OCCC(=O)NCc2ccccc2)cc1,inactive: > 76.9 µM
6,CCSc1nnc(NC(=O)CSc2nccn2-c2cccc(C)c2)s1,inactive: > 76.9 µM
7,CCc1cc(C)cc(OCCNC(=O)c2ncn[nH]2)c1,inactive: > 76.9 µM
8,COCCN(CCOC)S(=O)(=O)c1ccc(C(=O)Nc2nc(-c3ccncc3)cs2)cc1,inactive: > 76.9 µM
9,COc1ccccc1N1C(=O)C2C3C=CC(C3)C2C1=O (stereo unspecified),inactive: > 76.9 µM
10,CC(Sc1ccc(Br)cc1)C(N)=O (stereo unspecified),inactive: > 76.9 µM
11,Cc1[nH]nc2c1C(c1ccc(F)cc1)C(C#N)=C(N)O2 (stereo unspecified),inactive: > 76.9 µM
12,CC(=O)Nc1ccc(C(=O)CSc2nnc(C)o2)cc1,inactive: > 76.9 µM
13,CON(C)c1nc(Oc2ccc(=O)[nH]n2)nc(N(C)C)n1,inactive: > 76.9 µM
14,Cn1c(NC(=O)c2ccc(Br)o2)cc(=O)n(C)c1=O,inactive: > 76.9 µM
15,COCCn1c(=S)[nH]c2cc(C(=O)N3CCN(c4ccc(F)cc4)CC3)ccc2c1=O,inactive: > 76.9 µM
16,COC(=O)Nc1ccc(S(=O)(=O)N2CCN(c3ccc(F)cc3)CC2)cc1,inactive: > 76.9 µM
17,Cc1cc(C)nc(N2CCCC(C(=O)Nc3ccc4c(c3)OCO4)C2)n1 (stereo unspecified),inactive: > 76.9 µM
18,COC(=O)c1ccc(S(=O)(=O)NCCSc2nnc3c4ccccc4n(C)c3n2)cc1,inactive: > 76.9 µM
19,CCOc1ccccc1NC(=O)c1ccccc1-c1nc(-c2ccccc2)no1,inactive: > 76.9 µM
20,O=c1[nH]c(SCc2cc(=O)n3ccccc3n2)nc2c1CCC2,inactive: > 76.9 µM
21,CC(C)CCOCC(=O)Nc1cccc(C(=O)O)c1,inactive: > 76.9 µM
22,Cc1nn(CCO)c(C)c1Oc1ccccc1O,inactive: > 76.9 µM
23,COCCn1nnnc1CN(Cc1cc2cc(OC)c(OC)cc2[nH]c1=O)C1CCCC1,inactive: > 76.9 µM

row,SMILES,Potency
1,CC1CCC(C(C)C)C(OC(=O)COC(=O)c2ccc(=O)[nH]c2)C1 (stereo unspecified),inactive
2,COCCNS(=O)(=O)c1ccc(OCC(=O)OC)c(Cl)c1,inactive: > 76.9 µM
3,CCC(Sc1ncccc1C(=O)OCCN1CCCC1=O)C(=O)NCc1ccco1 (stereo unspecified),inactive: > 76.9 µM
4,O=C(NCc1ccc2c(c1)OCO2)C1CCC(CNS(=O)(=O)c2ccccc2)CC1 (stereo unspecified),inactive: > 76.9 µM
5,O=C(CN1CCN(c2ccccn2)CC1)NC1CCCC1,inactive: > 76.9 µM
6,Cc1cccc(OCc2nnc(SCC(=O)N3CCCC3)n2C)c1,inactive: > 76.9 µM
7,Cn1cccc1Cc1nnc(SCC(=O)NCc2ccc3c(c2)OCO3)n1CCc1ccccc1,inactive: > 76.9 µM
8,Cc1nn(C)cc1C(N)=O,inactive: > 76.9 µM
9,CC(C)NC(=O)c1ccccc1NC(=O)CCS(=O)(=O)Cc1ccccc1,inactive: > 76.9 µM
10,Cc1ccc2cc(C#N)c(SCC(=O)NCC3CCCO3)nc2c1C (stereo unspecified),inactive: > 76.9 µM
11,COc1ccc(NC(=O)CC(=O)Nc2ccc(OC)cc2OC)c(OC)c1,inactive: > 76.9 µM
12,Cn1c(-c2nonc2NC(=O)c2ccc(C(C)(C)C)cc2)nc2ccccc21,inactive: > 76.9 µM
13,O=C(CSc1nnc(-c2ccc(S(=O)(=O)N3CCCC3)cc2)o1)NCc1ccco1,inactive: > 76.9 µM
14,CCSc1nnc2c(n1)OC=Nc1ccc(Br)cc1-2,inactive: > 76.9 µM
15,CCCn1cc(S(=O)(=O)CC(=O)Nc2ccc(OC)cc2OC)c2ccccc21,inactive: > 76.9 µM
16,c1ccc2c(-n3cccn3)cccc2c1,inactive: > 76.9 µM
17,CN(C)c1ccc2c(O)cc(=O)n(C)c2c1,inactive: > 76.9 µM
18,O=C1CC(=O)N(Cc2cccs2)C(=O)N1,inactive: > 76.9 µM
19,Cc1ccc(S(=O)(=O)c2c(C)nn(C(C)(C)C)c2OC(=O)c2ccc(Br)o2)cc1,active: 12.5 µM
20,CCC(C(=O)Nc1ncccn1)(C(F)(F)F)C(F)(F)F,inactive: > 76.9 µM
21,O=C(Nc1ccccn1)NC12CC3CC(CC(C3)C1)C2,inactive: > 76.9 µM
22,COc1ccc(CCNC(=O)c2ccn[nH]2)cc1OC,inactive: > 76.9 µM

# Source: PubChem BioAssay AID360 (National Center for Advancing Translational Sciences (NCATS), 2006)
